The values that follow come from PubChem BioAssay (NCI).

Values joined by “and” are separate entries in the source; they are usually repeats but may differ in a detail not shown here. Equal entries are not always repeated.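 1) Cells in 96-well plates. 2) Compound, 48 h, 5 concentrations. 3) Linear interpolation between surrounding doses. 4) Unreached endpoint = highest concentration. GI50 marks 50% less growth. At the TGI there is no net growth.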 Numbered stars: 1 amine (or outer) side, 2 acyl side, 3 side chain; on linkers, the order of the positions; unused ones are H or OH. Square brackets hold non-standard residues; d marks the D form. Peptide text beside a SMILES is read from it. * marks the point of attachment. Phe(4-NO2) = N[CH](Cc1ccc([N+](=O)[O-])cc1)C(=O)O; γGlu = O=C(O)[CH](CCC(=O)[*:2])N[*:1]; Boc = CC(C)(C)OC(=O)*; NHOH = ON*

This test concerns NCI-H322M lung. The test is described as follows: inhibition of tumour cell growth, NCI panel, 48 h.
As to `CC1COCCN1CC#CCOC(=O)c1cc2ccccc2oc1=O` (configuration not stated), the GI50 is over 100 µM and the TGI was over 100 µM. The compound `NCC1(N2CCOCC2)C2CCCC21CNc1ccccc1` (configuration not stated) showed a TGI of over 100 µM. Take `Cc1[nH]n(-c2cccc(Cl)c2)c(=O)c1/C=C1\C=c2ccccc2=CC1=O`: the GI50 was over 100 µM and the TGI is over 100 µM.

For `Cc1ccc(S(=O)(=O)N/N=C2\CC(C)OC3=C2CCCCCC3)cc1` (configuration not stated), the TGI stood at 44.5 µM. Consider `COc1ccc(/C=C2\CCc3cc(OC)c(OC)cc3C2=O)cc1`, for which the TGI is over 10 µM. Turning to `Cn1cnc2c1c(=O)n(CCNCCO)c(=O)n2C`, the TGI is over 100 µM. On the same count and under the same terms, to `Cc1cc2cc3ccccc3cc2c(=O)[nH]1` belongs over 10 µM; to `O=C(NNC(=O)c1ccccc1O)c1ccco1`, over 100 µM. The same measure, in the same setting: to `CC(C)COC(c1ccc2c(c1)OCO2)C(C)Br` (configuration not stated) belongs over 100 µM.

For `O=C1NC(=O)C(c2c[nH]c3ccccc23)=C1c1ccccc1`, the GI50 was over 25 µM and the TGI is over 25 µM.

On to `O=C(c1ccccc1)N1CCC(Nc2nccs2)O1` (configuration not stated), for which the TGI was over 10 µM.

Consider `CNCCNc1nc2ccccc2c2c(=O)c3cccc(C)c3sc12`, for which the GI50 is 2.64 µM and the TGI turned out to be 9.42 µM. On to `C[N+](C)(C)CCN[N+]1(C)CCCc2ccccc21` (configuration not stated), for which the TGI is over 100 µM.

`O=C(N/N=C/c1ccc(Cl)cc1)c1ccccc1Nc1ccccc1C(=O)N/N=C/c1ccc(Cl)cc1` displayed a TGI of over 100 µM. On the same count and under the same terms, to `Cn1cnc([N+](=O)[O-])c1Sc1nc2ccc([N+](=O)[O-])cc2[nH]1` belongs 73.9 µM. `CNCCN(C)Cc1cn[nH]c1-c1ccc(OC2CC(OCCC3CCOCC3)C2)cc1` (configuration not stated): the GI50 is over 100 µM and the TGI is over 100 µM. As to `COc1cc(NC(C)CCCN2C(=O)c3ccccc3C2=O)c2ncccc2c1OC` (configuration not stated), the GI50 was over 100 µM and the TGI was over 100 µM. In turn, `Cc1ccc(NC(=O)C(=O)CC(=O)c2ccccc2)cc1C` showed a TGI of over 100 µM. In the case of `N#C/C(C(=O)Nc1ccc(Cl)cc1)=C(/N)N1CCOCC1`, the TGI is over 100 µM. On to `N[C@@H](CSSC[C@H](N)C(=O)N1CCn2cc(-c3ccccc3)nc2[C@@H]1CC1CCCCC1)C(=O)N1CCn2cc(-c3ccccc3)nc2[C@@H]1CC1CCCCC1`, for which the GI50 is 1.83 µM and the TGI was 5 µM.

In turn, `CNC(C)Cc1ccccc1OC` (configuration not stated) returned a TGI of over 100 µM. On the same count and under the same terms, the figure for `NC(=O)c1ncn(Cc2ccccc2)c1CNC(N)=S` is over 100 µM. Same read-out and setting: to `COC(=O)[C@@H]1COC(C(C)(C)C)N1C(=O)C(c1ccccc1)c1ccccc1` (some centres not stated) belongs over 100 µM; to `CCSc1nc(-c2cccs2)nc2ccc(I)cc12`, over 100 µM; to `COC(=O)C1(C)CCCC2(C)c3cc(OC)ccc3C(=O)C(Br)C12` (configuration not stated), over 10 µM. `CCCCc1ccc(Nc2nc(Cl)c3ncn(C4CC(Oc5ccc(C)cc5)C(COc5ccc(C)cc5)O4)c3n2)cc1` (configuration not stated): the TGI is over 100 µM. The same measure, in the same setting: the figure for `CC(C)NC(=O)OCc1c(COC(=O)NC(C)C)c(-c2cc[n+](COC(=O)C(C)C)cc2)n2c1CCC2` is over 100 µM; for `c1ccc2c3nnc(c2c1)SCCCSc1nnc(c2ccccc12)SCCCS3` it is over 100 µM. The same measure, in the same setting: the figure for `C[N+]1(C)C[C@@H](O)C[C@@H]1C(=O)[O-]` is over 100 µM; for `O=C1CSC(c2ccccc2O)N1c1nc2cc3sc(N4C(=O)CSC4c4ccccc4O)nc3cc2s1` (configuration not stated) it is over 100 µM. Turning to `CN1CCN(c2ccc(Nc3ncc4cc5n(c4n3)C3(CCCCC3)CNC5=O)nc2)CC1`, the GI50 was 2.22 µM and the TGI worked out at 19.2 µM. Consider `CCc1ccc([O-])c(C=NCCCN(C)CCCN=Cc2cc(C)ccc2[O-])c1.[Co+3].[N-]=[N+]=[N-]`, for which the GI50 was 50 µg/mL and 118 µg/mL; the TGI was 50 µg/mL and > 150 µg/mL. `O=C1c2ccccc2C(=O)c2c1ccc1c2N=C(c2ccc(Br)cc2)CC(c2cccc3ccccc23)N1` (configuration not stated) showed a TGI of over 100 µM. On the same count and under the same terms, to `N=C(N)SCc1cccc([N+](=O)[O-])c1` belongs over 100 µM; to `COC(=O)N/N=C(/c1nc2ccc([N+](=O)[O-])cc2[nH]c1=O)C(O)c1ccc(OC)c(OC)c1` (configuration not stated), over 100 µM.

With `CCc1ccc2c(c1)C(=O)c1c-2n(CCCN)c(=O)c2cc([N+](=O)[O-])ccc12`, the GI50 was 1.43 µM and the TGI was 2.75 µM. The compound `COc1cc([N+](=O)[O-])ccc1NC(=O)c1cccc([N+](=O)[O-])c1O` yielded a TGI of 73.8 µM. On to `CCN(CCO)CCCOc1ccc2c(Nc3cc(CC(=O)Nc4cccc(F)c4)[nH]n3)ncnc2c1`, for which the GI50 is 31.8 µM and the TGI was over 100 µM.

Turning to `O=C1/C(=C/c2ccccc2[N+](=O)[O-])COc2ccc(O)c(O)c21`, the GI50 is 2.43 µM and the TGI was found to be 10.6 µM. Regarding `CCCCCC1=C2C(c3ccc(OC)cc3)=C(N)C(c3ccc(OC)cc3)=C3NC(=O)C(C=C1)C32` (configuration not stated), the TGI is over 100 µM. With `COC(=O)c1ccc2c(C(=Nc3ccc(N(C)C(=O)CN4CCN(C)CC4)cc3)c3ccccc3)c(O)[nH]c2c1`, the GI50 is 4.16 µM and 17.1 µM; the TGI was 56.2 µM and > 100 µM. Regarding `COc1ccc(-c2nc3sccn3c2-c2ccnc(NCCCNS(=O)(=O)c3ccc(F)cc3)n2)cc1`, the GI50 was 3.69 µM and the TGI was over 100 µM.

Turning to `Oc1cccc(-c2nc(-c3ccccc3)[nH]c2-c2ccncc2)c1`, the GI50 is over 21.4 µM and the TGI is over 25 µM. `c1cc2c(c(NC3=NCCN3)c1)CCCC2` displayed a TGI of over 100 µM.

For the compound `CNc1ncnc2c1cnn2CCCCO`, the TGI is over 100 µM. For `COC(=O)[C@]12CC[C@@H](C)[C@H](C)[C@@H]1C1=CC[C@@H]3[C@@]4(C)CC(=O)[C@H](O)[C@@](C)(CO)[C@@H]4C(=O)C[C@@]3(C)[C@]1(C)CC2`, the GI50 was 12.3 µM and the TGI is 26.2 µM. Compound `Cc1nc2ccc(N)cc2[nH]c1=O` came in with a TGI of over 100 µM.

For the compound `CSc1ccc(/C=C2\N=C(c3ccccc3)N(/N=C3\C(=O)Nc4ccccc43)C2=O)cc1`, the TGI was over 100 µM.

`O=C1C(Br)=CC2(C=C1Br)CCNc1c(O)c3c4c(c12)=NCCC=4C=N3` displayed a TGI of 2.86 µM.

`CCOC(=O)c1c2ccc(/C=C/c3ccccc3)ccc-2c(C(=O)OCC)c1N` returned a TGI of over 100 µM. Same read-out and setting: the figure for `O=C1N(CN2CCOCC2)CN(CN2CCOCC2)C(=O)N1Cc1ccc(CN2C(=O)N(CN3CCOCC3)CN(CN3CCOCC3)C2=O)cc1` is over 100 µM. In turn, `NC(=O)c1cc([N+](=O)[O-])cc([N+](=O)[O-])c1` showed a TGI of over 100 µM. `N#CCC1(c2ccc(Cl)cc2)NC(=O)c2ccccc21` (configuration not stated): the TGI is over 100 µM. Still for that read-out and setting: the figure for `Cc1c/c(=N/NC(=O)c2ccncc2)n2nc(N)sc2n1` is over 100 µM. Take `Cc1cc(C#Cc2ccccc2)ccc1-n1c(/C=C/c2cc(O)ccc2O)nc2ccccc2c1=O`: the GI50 was 1.62 µM and the TGI was 5.48 µM.

The compound `CSc1nc(Br)nc2ncn(C3CC(Oc4ccc(C)cc4)C(COc4ccc(C)cc4)O3)c12` (configuration not stated) gave a TGI of over 100 µM. The same measure, in the same setting: to `COCCOC1=C(Cl)C(=O)c2c(O)ccc(O)c2C1=O` belongs 24.3 µM; to `Cc1ccc(S(=O)(=O)CC2(Br)CCc3ccccc3C2=O)cc1` (configuration not stated), over 100 µM. On the same count and under the same terms, the figure for `COC(=O)NC(=O)c1cn(C2CCCCC2)c(=O)[nH]c1=O` is over 100 µM; for `CCOC(=O)CNC(=O)C(CCC(=O)NO)NC(=O)CCC(N)C(=O)O` (configuration not stated) (γGlu-Glu(NHOH)-Gly-OEt; configuration not given here) it is over 100 µM. In the case of `COc1cc(Cn2c(SCC(=O)Nc3ccc(Cl)cc3)nc3ccccc3c2=O)cc(OC)c1OC`, the GI50 was 19.1 µM and the TGI was over 100 µM. For `NCCNCCNc1ccc(NCCNCCN)c2c1C(=O)c1c(O)ccc(O)c1C2=O`, the TGI was over 100 µM. On the same count and under the same terms, the figure for `CC(=O)OCC1OC(Oc2cc(C)c(O)cc2C/C=C(\C)CC/C=C(\C)C[C@@H](C=C(C)C)OC(C)=O)C(O)C(OC(C)=O)C1OC(C)=O` (some centres not stated) is over 50 µM; for `CCCCCCSc1nc(COC(=O)NC)c(COC(=O)NC)n1C` it is over 100 µM. Consider `N#Cc1ccc(/C=C/C(=O)c2ccccc2)cc1`, for which the GI50 was 18.3 µM and 15.1 µM; the TGI was 39.2 µM and 29.4 µM. The compound `Nc1c(Br)cc(-c2nc3ccccc3s2)cc1Br` had a TGI of over 100 µM. On the same count and under the same terms, the figure for `O=c1c2cc(O)c(O)cc2oc2cc(O)c(C3OC(CO)C(O)C(O)C3O)c(O)c12` (configuration not stated) is over 100 µM. In turn, `CCn1c(O)c(C=Nc2ccccc2)s/c1=N/Nc1nc(-c2ccc(O)c(O)c2)cs1` registered a TGI of over 100 µM. Still for that read-out and setting: the figure for `Cc1ccc(/C=C2\NC(=S)N(CN3CCCCC3)C2=O)cc1` is over 100 µM.

Consider `O=C(c1ccco1)c1c(C(F)(F)F)n([O-])c2ccc(F)cc2[n+]1=O`, for which the GI50 was 6.05 µM and the TGI worked out at 19.9 µM. With `COc1cc(NC(=O)c2ccccc2Nc2ccnc(C(F)(F)F)c2)cc(OC)c1OC`, the GI50 was over 100 µM and the TGI is over 100 µM. Take `CCOC(=O)Nc1cc2c(c(N)n1)N=C(c1ccc3ccccc3c1)CN2`: the TGI is over 76.5 µM. The same measure, in the same setting: the figure for `Cc1ccc2nc3c(C)cc(=O)cc-3sc2c1` is over 100 µM.

In the case of `O=C1CC[C@@H](NC(=O)Cc2ccccc2)C(=O)N1`, the TGI was over 100 µM. As to `CC/C(=N/N=C(N)N)c1ccc(NC(=O)Nc2ccc(/C(CC)=N/N=C(N)N)cc2)cc1`, the GI50 was 16.2 µM and the TGI was 39.6 µM. On to `Cc1cc(-c2cscn2)c(O)c([N+](=O)[O-])c1`, for which the TGI was over 100 µM. Same read-out and setting: the figure for `O=C(NC(Cc1ccc(I)cc1)C(=O)O)c1ccc(Cl)cc1` (configuration not stated) is over 100 µM. Still for that read-out and setting: the figure for `Cn1ccoc1=Nc1ccc(Cl)c(Cl)c1` is over 10 µM. In the case of `COc1ccc2c(c1)N(CCO)C1=C(C(=O)OC1)C2c1ccc(OC)c(OC)c1` (configuration not stated), the GI50 was 4.57 µM and the TGI is over 100 µM. For `COC(=O)CCC(NC(=O)OC(C)(C)C)C(=O)NC(Cc1ccc([N+](=O)[O-])cc1)C(=O)NC(CCC(=O)OC)C(=O)OC` (configuration not stated) (Boc-Glu(OMe)-[Phe(4-NO2)]-Glu(OMe)-OMe; configuration not given here), the TGI is over 100 µM.

On to `COc1ccc2c(c1)C(=O)c1c-2c(N2CCN(C(=O)CCNCCNCCO)CC2)nc2ccccc12`, for which the GI50 was 21.4 µM and the TGI stood at 42.1 µM. In turn, `C=C(CO)[C@H]1Oc2ccc(C(C)=O)cc2[C@@H]1O` registered a TGI of over 100 µM. Consider `CN(C)CCCN1c2ccc([N+](=O)[O-])cc2CCc2cc([N+](=O)[O-])ccc21`, for which the TGI was 27.3 µM and 29 µM.
